According to the supplement of paper PMC10126150:
Sequences with one replicate were seen in a single cluster, so their values are uncertain.

System: ATP
Assay: switch fluorescence ratio, 500 uM ATP over buffer (Cy3 cluster intensity, sum of 5 cycles each) (fold (ratio)); higher = stronger signal-on switching upon ATP binding; sequences stand for … in TCGTCGGCAGCGTCAGATGTGTATAAGAGACAGTTTTTTTTTTTTTTTTTTTTTTTTT…TC
Conditions: aptamer strand: ATP DNA aptamer (quencher-CACCTGGGGGAGTATTGCGGAGGAAGG + anchor), 100 nM annealed; ATP concentration: 500 uM; one replicate
Procedure, shortened: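 The fluorescence ratio divides summed target-cycle Cy3 intensity by summed buffer-cycle Cy3 intensity for each cluster and is averaged per switch-domain sequence. Cy3-labelled switching-strand clusters on a modified Illumina MiSeq flow-cell were annealed to 100 nM quencher-labelled ATP aptamer, then imaged in selection buffer and again after 15 min with 500 uM ATP at 22 °C. Five such cycles were run, with NaOH stripping and re-annealing between them, and clusters outside 100-1000 RFU were excluded.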
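Note: ATP exposure 15 min at 22 °C before imaging.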

| Sequence | switch fluorescence ratio |
| --- | --- |
| ATGAGGGTC | 1.04 |
| GCCCACGCAC | 1.76 |
| TGAAAAGGGT | 1.05 |
| CGCGTGTCAT | 1.06 |
| CAAAGGCTA | 1.03 |
| GCGGATAATG | 0.968 |
| GTTAATCTGG | 1.01 |
| TGAACCAGTT | 0.966 |
| TGTCGTGCCT | 0.995 |
| TTACCTCCAC | 1.48 |
| AGATTACACT | 0.996 |
| AAGGTAAACA | 1.04 |
| TGACCGCGGC | 1.09 |
| CCGTTAATTA | 1.13 |
| GCGCCTTCA | 1.31 |
| TTTCGTGCAT | 0.978 |
| CAGACGGCAG | 0.915 |
| AGTAGCCGTG | 0.946 |
| ACTAATTCTT | 1.01 |
| TAACCTTGTT | 1.02 |
| TTGACACGGA | 1.09 |
| TAAGGCCTAG | 1.05 |
| ACCCATGCAG | 1.02 |

| Sequence | switch fluorescence ratio |
| --- | --- |
| TAGGCAGTTA | 0.966 |
| ATATAGGTCG | 1 |
| ATAGTGCGGG | 0.974 |
| TCCTTGTTCT | 0.992 |
| TTTGGCCTCC | 1.03 |
| ATAAGAATAA | 0.985 |
| AGGAGATCTG | 0.987 |
| ACTATTAATG | 1.01 |
| GATTCTCGGT | 1.01 |
| GACGGGATTC | 1.2 |
| GGATAAAGGG | 0.971 |
| TGTAATCATG | 1 |
| AGCAATAGGA | 2.85 |
| CTTCTTGGAT | 1 |
| AATCATGTTT | 0.947 |
| GCATCAACCC | 1.04 |
| ACGTCGATTG | 0.995 |
| TCGGTCTGCG | 1 |
| CCTAGAGCCC | 1.08 |
| GCTAGAGAAT | 1 |
| TAGGAAGTG | 0.981 |
| TAATATCGAA | 1.03 |
| GATATATTGA | 1.05 |

| Sequence | switch fluorescence ratio |
| --- | --- |
| TTTGTGGTT | 0.95 |
| AAGTTATGAT | 1.01 |
| CTGTCGGTTC | 1.06 |
| ACTGCGCTTC | 3.02 |
| AAACCCTCGA | 1.04 |
| CCCAATGTA | 1.06 |
| AAAACGGGCC | 1.01 |
| TAATGTCCAC | 1.04 |
| CTCGAAGCGA | 0.995 |
| GAAGGGCAAA | 0.958 |
| ATTTACGCT | 1.07 |
| TAGGGGTCGC | 1 |
| CACTGGCCCA | 0.965 |
| GCCGGCTGAA | 0.981 |
| ATCCTGATCT | 1.04 |
| GTAATCTCCG | 1.18 |
| GCGTCACTGG | 0.986 |
| TTCTCGTTC | 1.02 |
| GTTAGTAAGA | 1.04 |
| TTAGCCGGGA | 0.986 |
| GAGAGCACTA | 1.08 |
| GCTGAATGCA | 0.984 |
| TGGGTTGTAA | 0.966 |

| Sequence | switch fluorescence ratio |
| --- | --- |
| TGGGTTGG | 0.955 |
| GTTGCGTTAT | 1.02 |
| CAGAGCCATC | 1.06 |
| TGGCTATTGG | 0.994 |
| AATAAATTAT | 1 |
| GCTGTGTTTA | 1.02 |
| GAGCTATCCG | 1 |
| AACCGGGGTG | 1.02 |
| TACCTTTGTA | 1.03 |
| ACAAATACAG | 1.06 |
| GTTCACCGTC | 0.965 |
| TTCGCACCTA | 1.18 |
| AATAAAGTTA | 1.04 |
| CAATTCGTAG | 1.03 |
| TGCGTCGGGA | 1 |
| CGATCGAGTC | 0.987 |
| CGGTTTCCT | 1.02 |
| GATATCTCC | 1.08 |
| GGGTACTAAC | 1.05 |
| CCGGTGCAGT | 4.19 |
| CTTAGCTAA | 1.03 |
| TCTAGGGTTG | 0.984 |
| GTAATTTGAA | 0.946 |

| Sequence | switch fluorescence ratio |
| --- | --- |
| CATATGAAGA | 1.05 |
| AGGGGCGTCT | 1.01 |
| GTATAACCTT | 1.61 |
| TACTGTTCAA | 0.981 |
| GATCGGATCC | 0.979 |
| AAAAGCAAAT | 1.01 |
| GCGTGCGCGG | 0.993 |
| TAGTTATATC | 1.04 |
| TTATCCCGAC | 1.13 |
| AATACGGACT | 1.38 |
| CACGCGCCAA | 1.23 |
| GCCTGGGATG | 0.995 |
| AGATGATAAT | 0.992 |
| TGAGTCGCCA | 0.978 |
| CCTTCGTGCG | 1.94 |
| GAGGCCTTGA | 1.02 |
| ATCGTCTTAT | 0.972 |
| CGAACAGCT | 1.02 |
| CCGTTAATTT | 1.18 |
| ATATAATGCT | 0.942 |
| TTCATAGGAG | 1.04 |
| GATTTAACAT | 0.997 |
| GAACCGTGTA | 1.01 |

| Sequence | switch fluorescence ratio |
| --- | --- |
| TGCGCATAGC | 1.19 |
| TCGGGGCATC | 0.995 |
| GGTCGTTCT | 0.987 |
| AGGTTGACGT | 1 |
| ATTGAAACAG | 0.954 |
| GGTAATAATT | 1 |
| ACGGGGAGGA | 1.04 |
| CGAATACCTT | 1.13 |
| GCTTAAAGTT | 0.979 |
| TAGACGCTGC | 1.06 |
| CCCTACGGGG | 1.11 |
| CGTAA | 1.05 |
| GACTACTGTT | 0.967 |
| ACATATAACC | 1.06 |
| GAATTACGAC | 1.26 |
| GGGCCACTGA | 1.01 |
| AGAGCTTCTT | 1.02 |
| TATCGGGC | 0.984 |
| CCGAGTCGTT | 1.01 |
| ATGCGACTGT | 0.958 |
| GTGTGGAGCG | 0.994 |
| AGGGTATAAC | 0.963 |
| GACTGTTCGA | 0.982 |

| Sequence | switch fluorescence ratio |
| --- | --- |
| GACAGCAGCA | 1.17 |
| AGGCCGACAT | 1 |
| AATGCCTTGG | 1.03 |
| CCTGCTATCC | 2.66 |
| AATTAATAAC | 1.01 |
| GCCAATCTTC | 1.02 |
| GGTGCAGGGC | 0.816 |
| ATTCGTGCAA | 1.19 |
| TTTTACCGCT | 1.05 |
| GTTCCTGAGG | 1.05 |
| GTCTGAGATT | 0.997 |
| AGTTTCCCAT | 0.99 |
| GACCCATCTA | 0.977 |
| TAATCTGACA | 1.03 |
| ACTAACGGTT | 1.33 |
| GCTTCCCTTA | 1.06 |
| TGACGAAAGC | 1.44 |
| GCCTGGAGCA | 1.1 |
| AGGCTATCGC | 1.01 |
| CACTTTCGAC | 1.22 |
